# Experimental data published in the BET-seq Pho4 binding data (Le et al. 2018).
# Some of the results follow. These are noisy estimates, calculated here from bound and input reads.
# Molecular target: T1, Pho4 (S. cerevisiae) (UniProt P07270)
# T1 sequence: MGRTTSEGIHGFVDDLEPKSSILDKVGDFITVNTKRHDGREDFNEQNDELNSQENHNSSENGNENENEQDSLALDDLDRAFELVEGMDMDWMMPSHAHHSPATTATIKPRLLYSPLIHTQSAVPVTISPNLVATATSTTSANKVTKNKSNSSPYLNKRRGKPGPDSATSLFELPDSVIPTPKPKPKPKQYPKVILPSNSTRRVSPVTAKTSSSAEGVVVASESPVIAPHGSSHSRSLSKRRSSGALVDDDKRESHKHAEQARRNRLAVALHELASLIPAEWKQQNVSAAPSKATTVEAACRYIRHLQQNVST
# Assay: relative binding free energy (BET-seq); higher = weaker binding
# Details: reference: library average
row,Sequence,relative binding free energy [kcal/mol]
1,TGGACCACGTGGGTGT,-0.17
2,GGGGGCACGTGTATTT,0.01
3,TGTAACACGTGTGAAA,0.1
4,AGGGGCACGTGGGGAG,-0.14
5,CGAAGCACGTGGGGTT,-0.1
6,ATTCGCACGTGTTTTA,-0.03
7,GGTGTCACGTGAATCG,0.35
8,GGTGGCACGTGAGAGT,0.1
9,TTGATCACGTGGCTTG,0.09
10,GCTGACACGTGGGTAG,-0.08
11,GATGCCACGTGGGTAG,-0.13
12,GACAACACGTGGTGTG,0.07
13,CTAATCACGTGTTGTG,0.06
14,TCTCGCACGTGCGTGG,0
15,TTTAGCACGTGGAGTC,-0.03
16,CGTTTCACGTGTTTCT,0.41
17,AGGGCCACGTGGGTCA,-0.22
18,TAGGTCACGTGGTTCG,0.22
19,TTAAGCACGTGTGAGT,-0.04

row,Sequence,relative binding free energy [kcal/mol]
1,TATGTCACGTGGGTGA,-0.14
2,GTTGTCACGTGGGTCA,0.07
3,GGGGTCACGTGTTCGA,0.32
4,AAATTCACGTGGGGGT,0.08
5,TGTGGCACGTGTGACA,-0.17
6,TATTACACGTGGATAG,0.11
7,GGGTCCACGTGTGGCT,0.11
8,GATTGCACGTGAGTAG,0.18
9,ATAGCCACGTGATGGG,-0.03
10,GTGGGCACGTGGTTTC,0
11,ATATACACGTGGCGGT,-0.11
12,CGTGTCACGTGGGGTT,-0.01
13,TGTCTCACGTGGTATG,0.16
14,GGTATCACGTGGGCAA,0
15,ATGGTCACGTGGCTAG,0.02
16,ATGACCACGTGTTGTT,0
17,TGTATCACGTGGATAA,0.06
18,ATCTGCACGTGGGGCT,-0.23
19,GGCTGCACGTGGTGTG,-0.07

row,Sequence,relative binding free energy [kcal/mol]
1,TTAGGCACGTGCAGGT,-0.12
2,GGAGACACGTGTTATA,0.13
3,GTATACACGTGGTAGC,0.08
4,GTTTACACGTGGGTTG,0.03
5,TTGCGCACGTGAAAGG,0.3
6,AAGTCCACGTGGGTGG,-0.1
7,CGGGTCACGTGTAAGA,0.13
8,ATAATCACGTGTGGGC,0.3
9,GTACGCACGTGAATTG,0.21
10,TAAGACACGTGTTGTA,0.09
11,GGTGGCACGTGGACTT,-0.12
12,GTGAGCACGTGGTCGT,-0.12
13,TTGATCACGTGTCAGC,0.36
14,GGGTGCACGTGACGCG,0.05
15,AGATCCACGTGAGTGT,0.25
16,AAGTCCACGTGGTGAG,-0.01
17,ATTGTCACGTGGGTTC,0.01
18,CGGTGCACGTGATGAG,0.15
19,GTGGACACGTGATTTT,0.21
